# Publication PMC4336329 (PLoS ONE, 2015)
# Hit rate of the full screen: of about 310,000 compounds, about 2,200 (0.71%) showed an effect of 50% or more. Effects have a minus sign here. This is one part of the list.
# Molecular target: human ether-à-go-go-related gene (hERG) potassium channel (human, UniProt Q12809)
# Assay: primary screen, population patch clamp on CHO cells stably expressing hERG
# human ether-à-go-go-related gene (hERG) potassium channel, sequence (Q12809 whole entry, looked up): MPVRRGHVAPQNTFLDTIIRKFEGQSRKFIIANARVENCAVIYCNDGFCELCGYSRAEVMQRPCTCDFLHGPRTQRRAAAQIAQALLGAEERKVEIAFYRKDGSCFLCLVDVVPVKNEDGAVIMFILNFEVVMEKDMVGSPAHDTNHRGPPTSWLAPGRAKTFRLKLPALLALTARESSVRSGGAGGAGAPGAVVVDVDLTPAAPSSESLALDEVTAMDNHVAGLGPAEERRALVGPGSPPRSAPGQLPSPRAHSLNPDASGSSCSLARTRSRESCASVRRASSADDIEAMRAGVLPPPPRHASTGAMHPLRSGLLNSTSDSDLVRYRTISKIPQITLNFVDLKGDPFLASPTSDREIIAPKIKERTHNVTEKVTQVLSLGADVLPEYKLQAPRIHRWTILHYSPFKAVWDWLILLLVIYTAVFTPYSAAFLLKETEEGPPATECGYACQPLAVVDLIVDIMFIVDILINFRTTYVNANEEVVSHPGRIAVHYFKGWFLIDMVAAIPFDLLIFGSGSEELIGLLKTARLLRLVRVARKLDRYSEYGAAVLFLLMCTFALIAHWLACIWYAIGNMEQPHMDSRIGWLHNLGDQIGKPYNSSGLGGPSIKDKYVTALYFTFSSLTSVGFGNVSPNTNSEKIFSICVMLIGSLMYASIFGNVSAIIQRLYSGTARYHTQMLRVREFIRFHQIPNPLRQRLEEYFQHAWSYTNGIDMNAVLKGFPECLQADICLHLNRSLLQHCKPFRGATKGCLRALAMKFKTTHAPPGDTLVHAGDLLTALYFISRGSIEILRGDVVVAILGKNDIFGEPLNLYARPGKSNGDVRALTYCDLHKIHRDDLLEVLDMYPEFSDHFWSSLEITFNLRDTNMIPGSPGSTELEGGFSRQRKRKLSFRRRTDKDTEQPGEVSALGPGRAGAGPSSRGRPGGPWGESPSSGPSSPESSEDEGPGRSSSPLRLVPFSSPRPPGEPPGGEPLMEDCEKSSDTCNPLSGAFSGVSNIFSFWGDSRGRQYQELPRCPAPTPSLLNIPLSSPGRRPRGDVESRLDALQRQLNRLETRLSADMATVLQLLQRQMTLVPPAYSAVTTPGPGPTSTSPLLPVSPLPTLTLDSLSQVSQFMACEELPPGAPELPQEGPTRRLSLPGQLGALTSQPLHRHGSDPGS
row,SMILES,"hERG current change (%, negative = inhibition) at 1uM [%]"
1,C=CCN1C(=O)/C(=C/c2ccc(OCC(=O)O)cc2)S/C1=N/c1nccs1,2
2,CCO[C@@H]1OC(C(N)=O)=C[C@H](C2CC2)[C@H]1CCCO,7.15
3,CCN(CC)c1ncnc2c1cnn2Cc1ccc(Cl)cc1,-3.07
4,COc1cccc(CNC(=O)C(=O)NCCC2CCCCN2S(=O)(=O)c2cccs2)c1 (stereo not shown),11.9
5,CCOc1cc(N(CC)CC)ccc1/C=C(/C#N)c1nc2ccccc2[nH]1,9.62
6,CCc1nnc2sc(-c3cc(-c4ccccc4)nc4ccccc34)nn12,4.91
7,O=C(Nc1ccc(S(=O)(=O)N2CCCC2)cc1)c1cc(=O)c2ccccc2o1,2.93
8,Cc1onc(-c2ccccc2)c1C(=O)N1CCN(C/C=C/c2ccccc2)CC1.Cl,-1.77
9,CN(C)c1cc[n+](CC[n+]2ccc(N(C)C)cc2)cc1.[Br-],13.3
10,CC(/C=C/c1ccccc1)=N\NC(=O)Cn1nc(C)cc1C,8.37
11,O=C(OCC(=O)N1CCC(Cc2ccccc2)CC1)c1cc(Cl)ccc1O,10.9
12,CCC(=O)c1ccc(N2CCCCCC2)c(F)c1,15.6
13,O=S(=O)(NC(=S)NC1CCCCC1)c1ccc(Cl)cc1,21
14,Cc1cccc(N2CCN(C(=O)COc3ccc4ccc(=O)oc4c3)CC2)c1C,10.5
15,Cc1ccc(-n2cnnn2)c(S(=O)(=O)N2CCOCC2)c1,5.69
16,O=C(Nc1cccc2cccnc12)c1cccc(N2C(=O)CCC2=O)c1,16.2
17,COc1ccc(CCC(=O)N2CCCc3ccccc32)cc1,17.3
18,COC(=O)c1ccccc1NC(=O)c1ccc(COc2cccc3ccccc23)o1,2.98
19,Cc1ccc(NC(=O)CSc2ccc(-c3ccco3)nn2)cc1,5.58
20,COC(=O)c1ccc2c(=O)n(CC3CCCO3)c(SCC(=O)Nc3ccc(OC)cc3OC)nc2c1 (stereo not shown),10.9
21,CCOC(=O)c1c(C)n(C)c2ccc(OCCN(C)C)cc12,5.87
22,CCn1ccnc1CNC(=O)c1ccc2oc(C(C)C)nc2c1,23.6
23,Cc1ccc(NC(=O)C2CC(=O)N(Cc3ccccc3)C2)nc1 (stereo not shown),14.6
24,CCOC(=O)c1c(NC(=O)C(NCCN(C)C)c2ccccc2)sc2c1CCCC2 (stereo not shown),-77.2
25,CCOc1ccc(CCNC(=O)C2CCCN(S(=O)(=O)N3CC(C)CC(C)C3)C2)cc1OCC (stereo not shown),2.12
